In PMC5057288 (The Journal of Cell Biology, 2016):

Legend:
[1] = molecular target: syntaxin1A–SNAP25 complex (human | mouse); assay: pull-down
GST-Syntaxin4 = molecular target: T1, GST-Syntaxin4 (mouse, UniProt P70452 1-274); assay: pull-down
T1 sequence: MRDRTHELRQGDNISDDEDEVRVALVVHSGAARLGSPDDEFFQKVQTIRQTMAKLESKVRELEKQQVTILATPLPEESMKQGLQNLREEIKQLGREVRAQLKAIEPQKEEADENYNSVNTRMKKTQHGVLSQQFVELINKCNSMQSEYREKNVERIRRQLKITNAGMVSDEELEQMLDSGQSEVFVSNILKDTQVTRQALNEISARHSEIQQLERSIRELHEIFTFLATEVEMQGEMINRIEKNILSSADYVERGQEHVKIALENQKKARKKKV

B1: His-VAMP2 (domain or fragment)
chain: not shown
binding result [1]: binds | binding result (GST-Syntaxin4): binds
